According to patent US11491155B2, “Salt of a pyrimido[6,1-A]isoquinolin-4-one compound” (VERONA PHARMA PLC, priority 2015, dated 2022):
Structures can show the parent of a compound that is named as a salt. The source gives many values for each of these; only a part stands here.

Test: Solubility of RPL554 salts in saline solutions, water and aqueous buffer solutions at 25° C. (HPLC)
Assay type: physicochemical
Details: for Solubility as RPL554 (mg/ml) in buffer solution pH 3.5, Phosphate / Solubility as RPL554 (mg/ml) in buffer solution pH 4.5, Acetate / Solubility as RPL554 (mg/ml) in buffer solution pH 4.5, Citro-phosphate / Solubility as RPL554 (mg/ml) in buffer solution pH 6.5, Phosphate: in saline 0.9% w/w
Experimental: The behaviour of salts of RPL554 were examined under the following conditions: • Phosphate buffered to pH 3.5 in saline, 0.9% w/w at 25° C. • Acetate buffered to pH 4.5 in saline, 0.9% w/w at 25° C. • Citro-Phosphate buffered to pH 4.5 in saline, 0.9% w/w at 25° C. • Phosphate buffered to pH 6.5 in saline, 0.9% w/w at 25° C. • Saline, 0.7, 0.9 and 1.1% w/w at 25° C. • Deionised water at 25° C.
RPL554 salts and RPL554, ca 50 mg, were suspended in the various aqueous media, 1 ml, with agitation at the specified temperatures for 24 hours. The solids were isolated and dried in vacuo at 45° C. The retained filtrates were examined by HPLC.
Additional RPL554 methane sulfonate salt, ca 50 mg, was charged to the water mixtures at 25° C. and 37.5° C. in order to afford a suspension. In all other cases, suspensions were obtained.
The solubility of the RPL554 was determined by HPLC using a single point calibration and is expressed as RPL554 and not as the salt and are detailed in Table 6 and Table 7 for the various conditions utilised.

COc1cc2c(cc1OC)-c1c/c(=N\c3c(C)cc(C)cc3C)n(CCNC(N)=O)c(=O)n1CC2 [Ethane-1,2-disulfonate, RPL554 ethane-1,2-disulfonate]
Solubility as RPL554 (mg/ml) in 0.9 w/w % Saline (24 hours): 4.12 mg/mL | Solubility as RPL554 (mg/ml) in 1.1 w/w % Saline (24 hours): 1.03 mg/mL | Solubility as RPL554 (mg/ml) in Water (deionised water, 24 hours): 3.69 mg/mL | Solubility as RPL554 (mg/ml) in buffer solution pH 3.5, Phosphate: 2.66 mg/ml | Solubility as RPL554 (mg/ml) in buffer solution pH 4.5, Acetate: 1.47 mg/ml | Solubility as RPL554 (mg/ml) in buffer solution pH 4.5, Citro-phosphate: 4.14 mg/ml

COc1cc2c(cc1OC)-c1c/c(=N\c3c(C)cc(C)cc3C)n(CCNC(N)=O)c(=O)n1CC2 [Ethanesulfonate, RPL554 ethanesulfonate]
Solubility as RPL554 (mg/ml) in buffer solution pH 3.5, Phosphate: 1.18 mg/ml | Solubility as RPL554 (mg/ml) in buffer solution pH 4.5, Acetate: 0.46 mg/ml | Solubility as RPL554 (mg/ml) in buffer solution pH 4.5, Citro-phosphate: 1.55 mg/ml

COc1cc2c(cc1OC)-c1c/c(=N\c3c(C)cc(C)cc3C)n(CCNC(N)=O)c(=O)n1CC2 [Hydrobromide, RPL554 hydrobromide]
Solubility as RPL554 (mg/ml) in buffer solution pH 3.5, Phosphate (hydrobromide): 0.33 mg/ml | Solubility as RPL554 (mg/ml) in buffer solution pH 4.5, Acetate (hydrobromide): 0.71 mg/ml | Solubility as RPL554 (mg/ml) in buffer solution pH 4.5, Citro-phosphate (hydrobromide): 0.75 mg/ml

COc1cc2c(cc1OC)-c1c/c(=N\c3c(C)cc(C)cc3C)n(CCNC(N)=O)c(=O)n1CC2 [Hydrochloride, RPL554 hydrochloride]
Solubility as RPL554 (mg/ml) in buffer solution pH 3.5, Phosphate (hydrochloride): 1.07 mg/ml | Solubility as RPL554 (mg/ml) in buffer solution pH 4.5, Acetate (hydrochloride): 1.38 mg/ml | Solubility as RPL554 (mg/ml) in buffer solution pH 4.5, Citro-phosphate (hydrochloride): 1.93 mg/ml

COc1cc2c(cc1OC)-c1c/c(=N\c3c(C)cc(C)cc3C)n(CCNC(N)=O)c(=O)n1CC2 [Methanesulfonate, RPL554 methanesulfonate]
Solubility as RPL554 (mg/ml) in buffer solution pH 3.5, Phosphate: 1.72 mg/ml | Solubility as RPL554 (mg/ml) in buffer solution pH 4.5, Acetate: 2.01 mg/ml | Solubility as RPL554 (mg/ml) in buffer solution pH 4.5, Citro-phosphate: 3.10 mg/ml | Solubility as RPL554 (mg/ml) in buffer solution pH 6.5, Phosphate: 0.02 mg/ml

COc1cc2c(cc1OC)-c1c/c(=N\c3c(C)cc(C)cc3C)n(CCNC(N)=O)c(=O)n1CC2 [Naphthalene-2-sulfonate]
Solubility as RPL554 (mg/ml) in buffer solution pH 3.5, Phosphate: 0.08 mg/ml | Solubility as RPL554 (mg/ml) in buffer solution pH 4.5, Acetate: 0.41 mg/ml | Solubility as RPL554 (mg/ml) in buffer solution pH 4.5, Citro-phosphate: 0.28 mg/ml

COc1cc2c(cc1OC)-c1c/c(=N\c3c(C)cc(C)cc3C)n(CCNC(N)=O)c(=O)n1CC2 [Phosphate, RPL554 phosphate]
Solubility as RPL554 (mg/ml) in buffer solution pH 3.5, Phosphate: 1.84 mg/ml | Solubility as RPL554 (mg/ml) in buffer solution pH 4.5, Acetate: 1.67 mg/ml | Solubility as RPL554 (mg/ml) in buffer solution pH 4.5, Citro-phosphate: 3.29 mg/ml | Solubility as RPL554 (mg/ml) in buffer solution pH 6.5, Phosphate: 0.02 mg/ml

COc1cc2c(cc1OC)-c1c/c(=N\c3c(C)cc(C)cc3C)n(CCNC(N)=O)c(=O)n1CC2 [RPL554, 9,10-dimethoxy-2-(2,4,6-trimethylphenylimino)-3-(N-carbamoyl-2-aminoethyl)-3,4,6,7-tetrahydro-2H-pyrimido[6,1-a]isoquinolin-4-one]
Solubility as RPL554 (mg/ml) in buffer solution pH 3.5, Phosphate (listed as None (RPL554)): 0.30 mg/ml | Solubility as RPL554 (mg/ml) in buffer solution pH 4.5, Acetate (listed as None (RPL554)): 0.24 mg/ml | Solubility as RPL554 (mg/ml) in buffer solution pH 4.5, Citro-phosphate (listed as None (RPL554)): 0.22 mg/ml

COc1cc2c(cc1OC)-c1c/c(=N\c3c(C)cc(C)cc3C)n(CCNC(N)=O)c(=O)n1CC2 [Sulfate, RPL554 sulfate]
Solubility as RPL554 (mg/ml) in buffer solution pH 3.5, Phosphate: 1.22 mg/ml | Solubility as RPL554 (mg/ml) in buffer solution pH 4.5, Acetate: 0.42 mg/ml | Solubility as RPL554 (mg/ml) in buffer solution pH 4.5, Citro-phosphate: 1.75 mg/ml

COc1cc2c(cc1OC)-c1c/c(=N\c3c(C)cc(C)cc3C)n(CCNC(N)=O)c(=O)n1CC2 [p-Toluenesulfonate, RPL554 p-toluenesulfonate]
Solubility as RPL554 (mg/ml) in buffer solution pH 3.5, Phosphate: 0.18 mg/ml | Solubility as RPL554 (mg/ml) in buffer solution pH 4.5, Acetate: 0.77 mg/ml | Solubility as RPL554 (mg/ml) in buffer solution pH 4.5, Citro-phosphate: 0.61 mg/ml
